Measurements reported in patent US20220056091A1 (BRIGHT PEAK THERAPEUTICS, published 2022).

T1: Fc fused human IL-18Rα (human, UniProt Q13478 19-329, limits assumed)
T1 construct: also called IL-18Rα monomer; IL-18 receptor alpha; not shown: Fc part
T1 sequence (looked up): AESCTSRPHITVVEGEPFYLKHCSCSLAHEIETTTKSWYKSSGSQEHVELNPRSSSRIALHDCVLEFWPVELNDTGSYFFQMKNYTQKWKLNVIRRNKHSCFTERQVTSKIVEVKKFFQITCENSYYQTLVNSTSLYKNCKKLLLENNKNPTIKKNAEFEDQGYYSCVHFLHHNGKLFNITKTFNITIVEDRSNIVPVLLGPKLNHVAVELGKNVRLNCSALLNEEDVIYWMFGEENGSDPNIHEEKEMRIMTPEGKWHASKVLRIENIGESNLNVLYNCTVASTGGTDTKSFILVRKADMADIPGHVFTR

T2: Fc fused human IL-18BP isoform a (IL-18BPa) (human, UniProt O95998 31-194)
T2 construct: also called IL-18BP monomer; not shown: Fc part
T2 sequence (looked up): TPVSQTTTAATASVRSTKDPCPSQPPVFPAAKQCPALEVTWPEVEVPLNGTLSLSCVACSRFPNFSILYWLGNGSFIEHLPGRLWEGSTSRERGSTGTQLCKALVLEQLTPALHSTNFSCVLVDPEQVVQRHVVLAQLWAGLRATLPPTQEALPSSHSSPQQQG

T3: IL-18Rα/β heterodimer (Fc fused human IL-18Rα mixed and pre-incubated with Fc fused human IL-18Rβ) (human, UniProt Q13478 19-329; O95256 20-356, limits assumed)
T3 construct: 6 µg/mL of each receptor mixed and pre-incubated 30 min before capture on anti-human IgG; also called alpha/beta heterodimer IL-18 receptor; not shown: Fc part
T3 sequence (looked up) 1: T1 sequence (looked up)
T3 sequence (looked up) 2: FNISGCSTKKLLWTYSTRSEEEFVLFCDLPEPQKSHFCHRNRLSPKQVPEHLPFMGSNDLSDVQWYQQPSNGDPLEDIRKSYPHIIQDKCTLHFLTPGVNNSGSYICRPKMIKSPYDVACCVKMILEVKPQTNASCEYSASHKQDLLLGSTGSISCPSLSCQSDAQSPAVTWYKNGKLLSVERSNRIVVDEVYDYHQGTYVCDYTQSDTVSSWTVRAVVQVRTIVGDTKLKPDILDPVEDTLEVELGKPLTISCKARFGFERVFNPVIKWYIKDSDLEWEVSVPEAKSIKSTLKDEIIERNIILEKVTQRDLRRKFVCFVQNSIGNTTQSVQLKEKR

B1: Modified IL-18 polypeptide of SEQ ID NO: 7 (E06K, K53A) (ligand)
chain: not shown
notes: also called E6K, K53A variant IL-18
B2: Modified IL-18 polypeptide of SEQ ID NO: 4 (K53A) (ligand)
chain: not shown
B3: Modified IL-18 polypeptide of SEQ ID NO: 5 (S55A) (ligand)
chain: not shown
B4: Modified IL-18 polypeptide of SEQ ID NO: 6 (E06K) (ligand)
chain: not shown
B5: Modified IL-18 polypeptide of SEQ ID NO: 8 (E06K, S55A) (ligand)
chain: not shown
B6: Modified IL-18 polypeptide of SEQ ID NO: 19 (T63A) (ligand)
chain: not shown
B7: Modified IL-18 polypeptide of SEQ ID NO: 20 (E06K, T63A) (ligand)
chain: not shown
B8: Modified IL-18 polypeptide of SEQ ID NO: 21 (K53A, T63A) (ligand)
chain: not shown
B9: Modified IL-18 polypeptide of SEQ ID NO: 9 (K53A, S55A) (ligand)
chain: not shown

What follows are binders tested against IL-18R on HEK-Blue IL18R reporter cells (InvivoGen, #hkb-hmil18) (assay: cell-based or functional assay).

Row | Binder | EC50 (pM), HEK-Blue IL18R reporter assay | Potency loss Mutant/NWT, HEK-Blue IL18R reporter assay
1 | B1 | 0.72 pM | 0.22 fold

These binders were tested against T1, Fc fused human IL-18Rα (assay: SPR, Fc-IL-18Rα captured, 1:1 model).
Experimental: (§1) The interaction of the wild type and of modified IL-18 polypeptides with human IL-18 receptor subunits were measured with Surface Plasmon Resonance (SPR) technology. Anti-human IgG antibodies were bound by amine coupling onto a CM5 chip to capture 6 μg/mL of Fc fused human IL-18Rα, 6 μg/mL of Fc fused human IL-18Rβ, or 2 μg/mL of Fc fused human IL-18BP isoform a (IL-18BPa) for 30 min before capture. In other settings, 6 μg/mL of alpha and beta IL-18 receptors were mixed and pre-incubated for 30 min before capture of the alpha/beta heterodimer IL-18 receptor.
(§2) The kinetic binding of the IL-18 analytes were measured with a Biacore 8K instrument in two-fold serial dilutions starting at 1 μM down to 0.98 nM. Regeneration of the surface back to amine coupled anti IgG antibody was done after every concentration of analyte. To measure the protein association to the receptors, the samples were injected with a flow rate of 50 μL/min for 60 s, followed by 300 s buffer only to detect the dissociation. The used running buffer was 1×PBS with 0.05% Tween20. The relative response units (RU, Y-axis) are plotted against time (s, X-axis) and analyzed in a kinetic 1:1 binding model for the monomer receptor binding and for the binding to the IL-18BP. A kinetic heterogenous ligand fit model was applied for the alpha/beta heterodimer binding.
Modified IL-18 polypeptides having sequence modifications E06K, K53A, S55A, and T63A maintained binding affinity to IL-18Rα.

Row | Binder | Kd | koff | kon
2 | B2 | 200 nM | 0.032 s⁻¹ | 160000 M⁻¹ s⁻¹
3 | B3 | 136 nM | 0.0121 s⁻¹ | 90800 M⁻¹ s⁻¹
4 | B4 | 1.37 nM | 0.00111 s⁻¹ | 824000 M⁻¹ s⁻¹
5 | B1 | 8.88 nM | 0.0071 s⁻¹ | 816000 M⁻¹ s⁻¹
6 | B5 | 14.8 nM | 0.00393 s⁻¹ | 265000 M⁻¹ s⁻¹
7 | B6 | 37.8 nM | 0.00359 s⁻¹ | 95200 M⁻¹ s⁻¹
8 | B7 | 2.33 nM | 0.00151 s⁻¹ | 648000 M⁻¹ s⁻¹
9 | B8 | 800 nM | 0.0133 s⁻¹ | 16600 M⁻¹ s⁻¹

What follows are binders tested against T2, Fc fused human IL-18BP isoform a … (assay: SPR, Fc-IL-18BPa captured, 1:1 model).
Experimental: as §1, §2
Modified IL-18 polypeptides bearing sequence modifications K53A, S55A, E06K, C38S, C68S, C76S, C127S, and/or K70C maintained binding affinity to IL-18BP.

Row | Binder | Kd | koff | kon
10 | B2 | 1.33 nM | 0.000538 s⁻¹ | 206000 M⁻¹ s⁻¹
11 | B3 | 1.13 nM | 0.000298 s⁻¹ | 270000 M⁻¹ s⁻¹
12 | B4 | 0.101 nM | 0.000141 s⁻¹ | 1.46e+06 M⁻¹ s⁻¹
13 | B1 | 2.26 nM | 0.00304 s⁻¹ | 1.36e+06 M⁻¹ s⁻¹
14 | B5 | 0.364 nM | 0.000258 s⁻¹ | 710000 M⁻¹ s⁻¹
15 | B9 | 29.8 nM | 0.00201 s⁻¹ | 67400 M⁻¹ s⁻¹
16 | B6 | 0.0321 nM | 8.98e-06 s⁻¹ | 279000 M⁻¹ s⁻¹
17 | B7 | 0.175 nM | 0.000328 s⁻¹ | 1.87e+06 M⁻¹ s⁻¹
18 | B8 | 9.22 nM | 0.000966 s⁻¹ | 105000 M⁻¹ s⁻¹

These binders were tested against T3, IL-18Rα/β heterodimer (Fc fused human …) (assay: SPR, Fc-IL-18Rα/Fc-IL-18Rβ mix captured, heterogeneous ligand model).
Experimental: as §1, §2
Modified IL-18 polypeptides bearing sequence modifications E06K, K53A, S55A, and T63A maintained binding affinity to IL-18Rα/β heterodimer.

Row | Binder | Kd | koff | kon
19 | B2 | 249 nM | 0.0354 s⁻¹ | 142000 M⁻¹ s⁻¹
20 | B3 | 96.4 nM | 0.00998 s⁻¹ | 152000 M⁻¹ s⁻¹
21 | B4 | 0.335 nM | 0.000391 s⁻¹ | 1.3e+06 M⁻¹ s⁻¹
22 | B1 | 1.47 nM | 0.000856 s⁻¹ | 582000 M⁻¹ s⁻¹
23 | B5 | 14.8 nM | 0.933 s⁻¹ | 6.3e+07 M⁻¹ s⁻¹
24 | B6 | 9.09 nM | 0.000624 s⁻¹ | 68600 M⁻¹ s⁻¹
25 | B7 | 0.658 nM | 0.000456 s⁻¹ | 693000 M⁻¹ s⁻¹
26 | B8 | 63 nM | 0.00105 s⁻¹ | 16700 M⁻¹ s⁻¹
